Laboratory results published in the supplement of paper PMC11417369.
± gives the standard deviation of the averaged measurements. This is one part of the list.

Tested on: PfAP2-G AP2 domain (GST-tagged)
Assay: gcPBM binding intensity (ln(normalized median fluorescence intensity)); higher = stronger DNA binding
Outline: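 Binding intensity is defined as the maximum Masliner-normalised natural-log median intensity across replicate spots for either probe orientation. It was measured on an Agilent 4 × 180k array of primer-extended double-stranded 36-bp intergenic genomic probes and negative controls, to which GST-tagged P. falciparum DNA-binding domains made in E. coli were applied for 1 h in 1× PBS with 1% milk, 0.2 mg/ml BSA, 0.5% salmon testes DNA and 0.03% Triton X-100. Detection was by Alexa488 anti-GST antibody and scanning at 488 nm.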

In order of falling “gcPBM binding intensity (ln)” value:
1. TTCCTTTGTCCTAACTGTACTCAAATTTATTAGTGG [XGTACX_site226]  11.8 ± 0.75
2. TATATACAAATATGTACACACATTACAGATGTACAT [CACACA_site6586]  11.8 ± 0.82
3. TAAATAAAAATACAGTGTACTTTTTTCTATTTAAAA [XGTACX_site3288]  11.7 ± 1.2
4. ATTTATTCAAATGGTTGTACTACAAATAAACATTAT [XGTACX_site3378]  11.6 ± 1
5. CATATTTTTATAAATTGTACGTATATTATATATATA [XGTACX_site1816]  11.5 ± 0.79
6. GTTTTTTATAATTGTAGTACAAGAAGATATTTTTAT [XGTACX_site5443]  11.5 ± 0.86
7. TTGTATATTATATGTACACACAATAAGTTAATATAA [CACACA_site909]  11.5 ± 0.93
8. ATAATGTGTTAGGCGTGTACACAATTGTATGGTTTA [XGTACX_site2377]  11.5 ± 0.88
9. TAAGTAAAAAATTAAAAAGATTACAGGGGGGGAAGG [XGTACX_negctrl_site491]  11.5 ± 0.8
10. CCAAACAAAAAAAAAAGTACATAAAACACCTATTTG [XGTACX_site5645]  11.5 ± 0.91
11. AAAAAAAGTTGATACTGTACTCGTGCATTATGAATA [XGTACX_site5558]  11.4 ± 1
12. CTTATTAAAATTATTTGTACACAATATGTAAAAGTA [XGTACX_site7237]  11.4 ± 0.6
13. ATTATTGTTGTTCATGTACACACTATAATAAAAGCA [CACACA_site4168]  11.4 ± 0.91
14. AACAATGTTGTACATACACACACACTAATAAAAAAT [CACACA_site8758]  11.4 ± 0.95
15. ATTTTAACGAATATATGTACATAAAAAAAAAAAAGA [XGTACX_site8750]  11.4 ± 0.79
16. AATATTAAATGAAAAAGTACAAACAGTCCTATATTA [XGTACX_site1926]  11.3 ± 0.8
17. ATTTATATAAAGAATGTACACACAGAAATGCACCCA [CACACA_site8715]  11.3 ± 0.78
18. ATATATATATATATATGTACATATTTCTCCATTTTT [XGTACX_site2869]  11.3 ± 0.79
19. AATTAATGGGTACATACACACATATATACCTACATA [CACACA_site4572]  11.3 ± 0.93
20. ATATATCAATATAAAAGTACAAACAAAAAATAATCA [XGTACX_site7559]  11.3 ± 1
21. ATTTTTGTGTTTACACGTACGTGTAAATTATTTTTC [XGTACX_site1869]  11.3 ± 0.57
22. TATTCATGTTTAAAAAGTACATATTATGGTAACATT [XGTACX_site4533]  11.3 ± 0.9
23. CATAATTTACATAAAAGTACATATATATTAATGACG [XGTACX_site6247]  11.3 ± 0.71
24. ATATATATATATGAAAGTACACATCTATTTTTTCTT [XGTACX_site6059]  11.3 ± 0.88
25. TAGAAAAAATAAAATAGTACACATCCAAAAAAAAAA [XGTACX_site7829]  11.3 ± 0.67
26. TAAATACAAAAATGTACACACATATATATATTTTTA [CACACA_site3503]  11.2 ± 0.89
27. AATATAAATTTATATTGTACATATTTTATTATATGT [XGTACX_site905]  11.2 ± 0.78
28. AAAAATAAAATAATATGTACATATATAATATATATA [XGTACX_site4786]  11.1 ± 0.75
29. ATAACAAAATAAAACACACACACAAATGTACAGATA [CACACA_site5358]  11.1 ± 0.72
30. ACATATCTACACAGTGGTACTTCCATTAATATATAC [XGTACX_site3827]  11.1 ± 0.56
31. TTAAATAAAATTTATTGTACATAAAATTAAATATAG [XGTACX_site3039]  11.1 ± 0.65
32. AAAATAAAATTTACTTGTACTAAAGGGATACGCGCA [XGTACX_site1453]  11.1 ± 0.67
33. AAGGTAGATATATTTAGTACGTAATTTTTTTTTTTT [XGTACX_site7288]  11.1 ± 0.67
34. AAAAAAAAAAACAGTTGTACATTTATTTATATATTA [XGTACX_site217]  11.1 ± 0.61
35. TATATATATAATGTTTGTACATATTAAATATATATG [XGTACX_site407]  11 ± 0.57
36. TTTATTCCCGCATATAGTACATATACCATTTAATGT [XGTACX_site7011]  11 ± 0.55
37. AATATTTAAGTACTGGTGCGTGTATATAATGATTAA [GTGCAC_site9633]  11 ± 0.5
38. GTGTATCAATATGTAGGTACGTAAATATAGATAATA [XGTACX_site5526]  11 ± 0.52
39. ATCCAAATTAATAATAGTACTTTTAAGTCCTATGTA [XGTACX_site2452]  11 ± 0.59
40. TAAATATTATTTATATGTACTGATATATTAAATAAA [XGTACX_site3446]  10.9 ± 0.8
41. AATTAATATTTAAATTGTACATGAACATTTTAATGT [XGTACX_site462]  10.9 ± 0.55
42. GCATTGTCCATGCGCACACACTACTAGAATAATATG [CACACA_site5932]  10.8 ± 0.4
43. TAAATGAAAACCATTAGTACTTATACTGATAAATGT [XGTACX_site763]  10.8 ± 0.47
44. AAAAGGGATAAATGTGCGCACATGTTATATATATAT [GTGCAC_site9534]  10.8 ± 0.43
45. CATAAATACACTGTAGCGCACACGGCCAAAAAAAAA [CACACA_site8537]  10.8 ± 0.52
46. GTAAAAAAAGAGCACACACACAAAAACACCCACAAA [CACACA_site1292]  10.7 ± 0.47
47. ATTAATATGAATAAATGTACAAATGAATGATTACAT [XGTACX_site6044]  10.7 ± 0.32
48. AACGTATTATTTATCTGTACAAAATAATAACGTATT [XGTACX_site813]  10.7 ± 0.42
49. AAAATAAGGACTGTTGTGCACTGGATTTGTGGTTAC [GTGCAC_site9830]  10.6 ± 0.22
50. AAACCGTGGGAGCACACACACACACCGACACATATA [CACACA_site4338]  10.5 ± 0.37
51. TAAATATATATATGTGTGCACTTCTTCATTTTAATA [GTGCAC_site9537]  10.4 ± 0.3
52. ATAATTAGGGTGTATTTCATTTCATTTCATTTTATT [CACACA_negctrl_site1418]  10.4 ± 0.2
53. TTTTGTTTTTTCAATGTGCACTTAGGATGTTTTTAT [GTGCAC_site9565]  10.4 ± 0.4
54. TGCAATTGTAAAGGCGCACACATATATATATATATA [CACACA_site4894]  10.3 ± 0.29
55. TAATTTTTTAGACACACACACATATAAATATAAATA [CACACA_site6195]  10.3 ± 0.31
56. AGAAGCATACATCAAGCACACACACCCACACCCACA [CACACA_site8014]  10.3 ± 0.44
57. ATAAATAAAATATGCACACAAATATAGGAAACAACA [CACACA_site2561]  10.35 ± 0.099
58. GATATATACTCCATCACACACCAAAAAGAAAAAAGA [CACACA_site7242]  10.2 ± 0.46
59. TAAATATTTTTATGGGTGCGTTCTTTAGCGCAATTT  10.2 ± 0.19
60. AGGTATTTTCTTGTGACACACATATATATATATATT [CACACA_site2220]  10.23 ± 0.071
61. ATTAATTATTTCAATGCATGTGAACACTATATATAA [TGCATGCA_site600]  10.2 ± 0.2
62. TTTTGCAATAATGTTGCACACTAAATAGTCATATAT [CACACA_site7977]  10.2 ± 0.26
63. AATACATACAGACACACACACACATATAAATAAATA [CACACA_site7642]  10.2 ± 0.28
64. AAACTTGTAAGAAACACACACACACGCATATAAATA [CACACA_site6518]  10.2 ± 0.18
65. AAATAAAATCATAATGTGCGCATATAAATTTGTAGG [GTGCAC_site9662]  10.21 ± 0.078
66. CAAACAAATTGTGAAACACACATATATATATATATA [CACACA_site2001]  10.2 ± 0.65
67. CCATCTAAACACAACTCGAGTTGGATGTGTGAACTT [XGTACX_negctrl_site83]  10.1 ± 0.25
68. GCTCATTGAAGTTATACACACCAAATATGTAAATAT [CACACA_site7217]  10.07 ± 0.064
69. GTCACAAAATAAATTAAACACACAACATCATATATG [CACACA_site8182]  10.1 ± 0.035
70. TAATATAATATATAGGTGCAATATTAACAAAAATTT  10.1 ± 0.28
71. AAAAAAAAAAAACATACACACAAATAAATACATACA [CACACA_site6073]  10 ± 0.18
72. AATTGGAAACAACCAAAAAAATTAAAGTTGTATCCT [CACACA_negctrl_site565]  10.04 ± 0.099
73. CGGCACATTATATATACACACATATAAATATATACA [CACACA_site8086]  10 ± 0.29
74. TATATCTTAATATACACACACACATATATATATATA [CACACA_site4968]  10 ± 0.11
75. TTTCTTTAATATATAGTGCATGTAAATTTTACAATA [GTGCAC_site9679]  10 ± 0.2
76. GACATAAGATAATTACACATTGTTTCCTCAATAATA [CACACA_negctrl_site1616]  10 ± 0.13
77. TAAATTTTAATATGCACACAAAATGTTATATTAAAA [CACACA_site4366]  9.98 ± 0.28
78. ATATAATATGGTATTACACACTGTTATAAGTATGGC [CACACA_site2094]  9.96 ± 0.085
79. AATATATAAATATATACACACAAAAACATATATATA [CACACA_site1318]  9.91 ± 0.085
80. ATAATATATTTTTGAACACACAATATAGATTTATAT [CACACA_site7857]  9.895 ± 0.007
81. ACACGTTTATATAAAAAATTAAAATTTTTCTTATTT [CACACA_negctrl_site1523]  9.895 ± 0.007
82. TTTATATTGATATATACACACATATACATCCTATTT [CACACA_site7442]  9.835 ± 0.064
83. TCCTTTTCTTAATTTAAAAAATATAAAAAAAACGAA [CACACA_negctrl_site1821]  9.84 ± 0.35
84. TCATAAATTAAACAAACACACACGTTCTTTTATTTA [CACACA_site713]  9.84 ± 0.11
85. ATCAAAAGAAAACACACACACATACAGATATATATA [CACACA_site5974]  9.8 ± 0.057
86. TATATAAATATATATACACACAAAAAAAAAAAAAAA [CACACA_site1406]  9.76 ± 0.33
87. TAATTAAAATTATCTACACACCTTTATAAATATATA [CACACA_site3928]  9.68 ± 0.028
88. TCCATTTATAAATTAGCATGCAATCTATGTCTGATA [TGCATGCA_site1045]  9.64 ± 0.13
89. TATTCGAAAATTATTCAAATTATCTAACATATTATT [TGCATGCA_negctrl_site70]  9.565 ± 0.021
